Experimental data from PubChem BioAssay AID588453 (National Center for Advancing Translational Sciences (NCATS), 2011).
Several values for one entry are separate records, joined by “and”; a condition that tells them apart may be missing. Identical values can stand only once. Hit rate of the full screen: of about 390,000 compounds, about 4,000 (1%) were called active. The shares of active, inactive and inconclusive entries below differ from those in the screen. The call rests on the fitted dose curve; in most records, active means well fitted inhibition curve with a large enough effect; inconclusive means small, poorly fitted or top-dose-only effect; inactive means no such curve, though single readings can be large or run the other way. Potencies beside an inconclusive call are fits to weak or partial responses and may not hold up.

Target: Thioredoxin reductase 1, cytoplasmic (Rattus norvegicus) (UniProt O89049)
Assay: qHTS Assay for Inhibitors of Mammalian Selenoprotein Thioredoxin Reductase 1 (TrxR1): qHTS; further: nearly all actives have a fitted effect of over 65% in size
Conditions: recombinant rTrxR1, NADPH fluorescence consumption, selenite substrate; series mostly up to 114 µM
Outline: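 Rat TrxR1 (90 nM in the dispensed reagent) was pre-reduced with 400 uM NADPH for 5 min at room temperature, then incubated with compound for 15 min. After 400 uM selenite was added, NADPH fluorescence (Ex 340/Em 450 nm) was followed for 8 min.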
On the % scale 0 is the no-effect control and ±100 the full control effect; potency means the concentration at half of the fitted maximal effect; tags describe the fitted curve by direction and shape.

Chain of UniProt O89049 (O89049 whole entry, looked up): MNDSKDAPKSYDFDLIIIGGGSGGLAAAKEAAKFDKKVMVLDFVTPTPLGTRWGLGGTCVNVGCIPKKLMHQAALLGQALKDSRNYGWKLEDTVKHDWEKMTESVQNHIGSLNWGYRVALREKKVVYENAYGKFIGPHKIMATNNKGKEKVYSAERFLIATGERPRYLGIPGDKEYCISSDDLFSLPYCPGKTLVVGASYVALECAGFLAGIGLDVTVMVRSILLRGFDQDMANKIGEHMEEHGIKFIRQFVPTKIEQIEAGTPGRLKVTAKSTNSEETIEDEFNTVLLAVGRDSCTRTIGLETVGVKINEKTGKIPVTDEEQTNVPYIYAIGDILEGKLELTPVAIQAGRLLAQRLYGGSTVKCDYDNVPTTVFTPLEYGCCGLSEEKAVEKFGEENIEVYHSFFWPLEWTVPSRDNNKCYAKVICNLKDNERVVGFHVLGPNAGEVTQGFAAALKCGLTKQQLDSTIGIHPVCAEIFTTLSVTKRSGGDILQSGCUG

Row | SMILES | Potency | activity change, negative = inhibition
1 | O=C(C[n+]1cccc(C(=O)Nc2ccccc2)c1)c1ccc([N+](=O)[O-])cc1 | inconclusive: 79.4 µM [inhibitor, partial curve] | 
2 | COc1cc(SC)ccc1C(=O)N1CCC(Cc2ccccc2)CC1 | inactive | 
3 | Fc1ccc(CSc2ncnc3c2ncn3C2CCCCO2)cc1 (stereo unspecified) |  | inactive: -3.44% [at 11.4 µM]
4 | CC#C[C@]1(O)CC[C@H]2[C@@H]3CCC4=CC(=O)CCC4=C3[C@@H](c3ccc(N(C)C)cc3)C[C@@]21C | inactive and inconclusive: 8.91 µM [inhibitor, full curve] | 
5 | COCCN(CCOC)c1nc(S(=O)(=O)c2ccc(C)cc2)c(Cl)s1 | inconclusive: 8.91 µM [inhibitor, single point] | 
6 | C/C(=N\NC(=S)Nc1cc(S(=O)(=O)N2CCOCC2)ccc1Cl)c1ccc(N2CCOCC2)cc1 | inactive | 
7 | N#Cc1ccc(NC(=O)COC(=O)CNC(=O)C2CCCCC2)cc1 | inactive | 
8 | O=[N+]([O-])C(/C=C(/Cl)[N+](=O)[O-])=C(N1CCCCC1)N1CCCCC1 | active: 7.94 µM | 
9 | CCOC(=O)c1cc(C)sc1NC(=O)CN1CCN(C(=O)C2CCCO2)CC1 (stereo unspecified) | inconclusive: 79.4 µM [inhibitor, partial curve, poor fit] | 
10 | CC(=O)NCCC(=O)N(C)CC1CCN(CCc2cccc(C(F)(F)F)c2)CC1 | inconclusive: 20 µM [inhibitor, full curve, poor fit] | 
11 | COC(=O)Cc1c(C)c2ccc(OCC(C)=O)c(C)c2oc1=O | inconclusive: 70.8 µM [inhibitor, single point] | 
12 | O=S(=O)(c1ccccc1)c1nc(-c2ccccc2Cl)oc1NCCN1CCOCC1 | inconclusive: 70.8 µM [inhibitor, single point] | 
13 | CCOc1ccc(C2C(C#N)=C(N)Oc3nc[nH]c(=O)c32)cc1OC (stereo unspecified) | inactive | 
14 | Fc1ccc(CSc2nnc(-c3cc4c(s3)-c3ccccc3CC4)o2)cc1 | inconclusive: 39.8 µM [inhibitor, single point] | 
15 | CCCC1=Nc2cc(C(=O)NCCCOCC)ccc2Sc2ccccc21 | inactive | 
16 | COCCn1cnc2c1-c1ccc(OC)c(c1)OC/C=C\COc1cccc-2c1 | inconclusive: 22.4 µM [inhibitor, partial curve] | 
17 | CCOC(=O)c1ccccc1NC(=O)COc1cc(=O)n(CC)c2ccccc12 | inconclusive: 11.2 µM [inhibitor, partial curve] | 
18 | Cc1ccc(C)n1-c1ccc(N(C)C)cc1 | inconclusive: 31.6 µM [inhibitor, partial curve, poor fit] | 
19 | C=CCNc1nc(SCC=C)nc2ccsc12 | inconclusive: 79.4 µM [inhibitor, single point] | 
20 | COc1ccccc1CNC(=O)COC(=O)c1nccnc1N | inconclusive: 89.1 µM [inhibitor, partial curve, poor fit] | 
21 | COC(=O)c1ccc(NC(=S)NC(=O)c2cccnc2)cc1 | inconclusive: 56.2 µM [inhibitor, partial curve, poor fit] | 
22 | CCN(Cc1ccccc1)C(=O)c1ccc(CS(=O)c2ccccc2C)o1 (stereo unspecified) | inconclusive: 89.1 µM [inhibitor, single point] | 
23 | O=C(CS(=O)(=O)c1ccccc1)Nc1ccccc1Br | inactive | 

Row | SMILES | Potency | activity change, negative = inhibition
24 | CCc1nnc(NC(=O)c2ccccc2NC(=O)C2CCN(C(=O)c3ccco3)CC2)s1 | inactive | 
25 | CCOC(=O)c1cc2c(=O)n3ccccc3nc2n(Cc2ccco2)c1=NC(=O)c1ccc(F)cc1 | inconclusive: 5.01 µM [inhibitor, full curve, poor fit] | 
26 | CC(NC(=O)/C(C#N)=C/c1ccc([N+](=O)[O-])o1)c1ccccc1 (stereo unspecified) | active: 7.94 µM | 
27 | O=S(=O)(NCCc1cn2ccsc2n1)c1ccc(Cl)cc1 | inconclusive: 17.8 µM [inhibitor, partial curve] | 
28 | CCOc1ccc(-n2cc(-c3ccc(OC)c(OC)c3)[nH]c2=S)cc1 | inconclusive: 39.8 µM [inhibitor, partial curve, poor fit] | 
29 | CCOc1ccc(CNC(=O)CN2N=C(c3ccccc3)CCC2=O)cc1OC | inconclusive: 6.31 µM [inhibitor, single point] | 
30 | CN1CCN(C(c2ccc(C(F)(F)F)cc2)c2ccc3cccnc3c2O)CC1 (stereo unspecified) | active: 6.31 µM | 
31 | Cc1cc(C)cc(NC(=S)N2CCCC2)c1 | inactive | 
32 | O=C(N/N=C1\CCc2ccccc21)c1ccc(O)cc1 | inactive | 
33 | COc1ccc(C(=O)/C=C/c2ccccc2)c(OC)c1 | inactive | 
34 | CN1C(=O)C(O)(CC(=O)/C=C/c2ccco2)c2cc(Br)ccc21 (stereo unspecified) | active: 15.8 µM | 
35 | O=C(Nc1nc(-c2ccco2)c(-c2ccco2)s1)C1CCC1 | inconclusive: 39.8 µM [inhibitor, partial curve] | 
36 | O=C(/C=C/c1ccncc1)c1ccc2c(c1)OCCO2 | inconclusive: 70.8 µM [inhibitor, single point] | 
37 | O=C(CCl)N1N=C(c2cccs2)CC1c1ccco1 (stereo unspecified) | active: 14.1 µM | 
38 | CCOC(=O)N1CCN(Cc2nc3cc(NC(=O)C(C)C)ccc3n2CC)CC1 | inactive | 
39 | COc1ccc(C(=O)c2c3ccc([N+](=O)[O-])cc3[n+]([O-])n2CCCN)cc1 | inconclusive: 14.1 µM [inhibitor, partial curve] | 
40 | CCOc1ccc(NC(=O)CN2CC(c3ccccc3)CC2=O)cc1 (stereo unspecified) | inactive | 
41 | CCCc1cc(=O)oc2c(C)c3c(cc12)CN(CCc1ccc(Cl)cc1)CO3 | inconclusive: 89.1 µM [inhibitor, single point] | 
42 | C#CCOc1ccc(Cl)cc1/C=C1/C(=O)ON=C1C | inconclusive: 28.2 µM [inhibitor, partial curve] | 
43 | Cc1ccccc1OC(C)C(=O)Nc1cccnc1 (stereo unspecified) | inconclusive: 89.1 µM [inhibitor, partial curve, poor fit] | 
44 | CCC(=O)NC(=S)Nc1ccc(OC)cc1OC | inconclusive: 25.1 µM [inhibitor, single point] | 
45 | COc1ccc(C(C)=O)cc1COC(=O)c1cc(C)oc1C | active: 10 µM | 
46 | Cc1ccc(Nc2c(-c3cccnc3)nc3ccc(Cl)cn23)cc1 | inactive | 
